In all, about 230,000 compounds went through this assay and about 3,600 (1.6%) were called active. The inconclusive results got no clear call from the source; some entries with a clear call stand among them for comparison. Calls follow the shape of the dose curve; as a rule, active = well fitted inhibition curve with a large enough effect (not every such curve was filed as active); inconclusive = small, poorly fitted or top-dose-only effect, or another doubt; inactive = no such curve, though single readings can be large or run the other way. Where the call is inconclusive, the potency comes from a doubtful curve fit.
These compounds were tested against Lysine-specific demethylase 4E (Homo sapiens) (UniProt B2RXH2) (assay: qHTS Assay for Inhibitors of Human Jumonji Domain Containing 2E (JMJD2E)). Conditions: JMJD2E catalytic domain, FDH-coupled NADH fluorescence (FDH is formaldehyde dehydrogenase); series mostly up to 57.1 µM.
Also: nearly all actives have a fitted effect of over 50% in size.
Potency is read from the fitted curve at half-maximal effect; tags tell the direction and shape of the fitted curve.

Chain of UniProt B2RXH2 (B2RXH2 whole entry, looked up, the tested form may be a part): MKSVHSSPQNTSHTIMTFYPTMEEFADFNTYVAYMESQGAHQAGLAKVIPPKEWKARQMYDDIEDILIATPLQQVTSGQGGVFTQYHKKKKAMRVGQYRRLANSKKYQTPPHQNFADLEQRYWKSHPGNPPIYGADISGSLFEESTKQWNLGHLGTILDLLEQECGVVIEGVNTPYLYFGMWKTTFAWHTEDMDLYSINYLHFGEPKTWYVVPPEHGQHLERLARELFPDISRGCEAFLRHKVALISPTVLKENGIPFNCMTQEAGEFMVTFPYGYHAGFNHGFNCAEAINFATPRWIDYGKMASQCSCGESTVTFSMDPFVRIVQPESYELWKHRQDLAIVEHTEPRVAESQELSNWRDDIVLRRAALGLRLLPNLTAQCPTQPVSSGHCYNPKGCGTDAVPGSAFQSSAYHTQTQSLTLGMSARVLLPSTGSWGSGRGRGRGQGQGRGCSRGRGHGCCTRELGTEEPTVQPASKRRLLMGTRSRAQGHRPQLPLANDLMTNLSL

Question: `O=c1[nH]c2ccccc2nc1C(Cl)c1ccccc1` (centres undefined) was tested. Which Potency did it give?
Answer: inconclusive: 39.8 µM [inhibitor, single point]

Question: With `COc1cccc(-c2cc(=O)c3ccc(OC)cc3o2)c1` as the compound, how does the Potency read?
Answer: inconclusive: 31.6 µM [inhibitor, partial curve]

Question: With `Brc1ccc2nc(-c3c[nH]c4ccccc34)cn2c1` as the compound, how does the Potency read?
Answer: inconclusive: 39.8 µM [inhibitor, single point]

Question: Which Potency does the source give for `CCCSc1nnc(NC(=O)c2sc3nc(-c4cccs4)ccc3c2N)s1` here?
Answer: inconclusive: 25.1 µM [inhibitor, partial curve]

Question: With `CCC(C)c1ccc(S(=O)(=O)N2CCN(C(C)CC(=O)O)CC2)cc1` (centres undefined) as the compound, how does the Potency read?
Answer: inconclusive: 28.2 µM [inhibitor, single point]

Question: With `CC(=O)Nc1c(C(N)=O)oc2ccc(Cl)cc12` as the compound, how does the Potency read?
Answer: inconclusive: 35.5 µM [inhibitor, single point]

Question: `C=CCNC(=S)NNC(=O)c1cccn(Cc2ccc(Cl)cc2Cl)c1=O` was tested. Which Potency did it give?
Answer: inconclusive: 39.8 µM [inhibitor, single point]

Question: `CCn1c(SCC(=O)N2CCCCC2C)nc2ccsc2c1=O` (centres undefined) was tested. Which Potency did it give?
Answer: inactive

Question: Which Potency does the source give for `Cc1nc2c(C)cccc2c2c1CCN2c1ccccc1F` here?
Answer: inconclusive: 31.6 µM [inhibitor, partial curve]

Question: How did the Potency turn out when `NC(=O)c1sc2nc(N3CCCCC3)c3c(c2c1N)CCCC3` was run?
Answer: inconclusive: 15.8 µM [inhibitor, partial curve]

Question: Which Potency does the source give for `COc1cccc2cc(C(=O)C3=C(O)C(=O)N(CCN4CCOCC4)C3c3cccs3)oc12` (centres undefined) here?
Answer: inconclusive: 39.8 µM [inhibitor, single point]

Question: For `Cc1cc(C(=O)NCc2ccco2)c2cc(F)ccc2n1`, which Potency is on record?
Answer: inconclusive: 39.8 µM [inhibitor, single point]

Question: With `CN(C)C(=O)Oc1cccc([N+](C)(C)C)c1` as the compound, how does the Potency read?
Answer: inactive

Question: `O=C1CCCC2=C1C(c1ccccc1)n1c(s/c(=C/c3cccc(F)c3)c1=O)=N2` (centres undefined) was tested. Which Potency did it give?
Answer: inconclusive: 39.8 µM [inhibitor, single point]

Question: For `N#C/C(=C\c1ccccc1)c1nc2ncccc2[nH]1`, which Potency is on record?
Answer: inconclusive: 14.1 µM [inhibitor, partial curve]

Question: How did the Potency turn out when `NNC(=O)CSc1nc(-c2ccccc2)nc2c1CCCC2` was run?
Answer: inactive

Question: How did the Potency turn out when `Cc1cccc(NC(=S)N/N=C2\CC(C)(C)Oc3ccc(O)cc32)c1` was run?
Answer: inconclusive: 28.2 µM [inhibitor, partial curve]

Question: How did the Potency turn out when `COc1ccc(CCNc2ccc(N3C(=O)CC(C)C3=O)cc2[N+](=O)[O-])cc1OC` (centres undefined) was run?
Answer: inactive

Question: `Nc1c(C(=O)NCc2ccccc2)c2nc3ccccc3nc2n1-c1ccc2c(c1)OCO2` was tested. Which Potency did it give?
Answer: inconclusive: 2.82 µM [inhibitor, full curve]

Question: For `CN(C)CCNC(=O)Cc1c(C(=O)O)n(C)c2ccccc12`, which Potency is on record?
Answer: inconclusive: 22.4 µM [inhibitor, single point]

Question: How did the Potency turn out when `COc1ccc(NC(=O)N(Cc2cc3cc(OC)c(OC)cc3[nH]c2=O)CC2CCCO2)cc1` (centres undefined) was run?
Answer: inconclusive: 28.2 µM [inhibitor, partial curve]

Question: With `CC(=O)Nc1ccc(Oc2cncc(Cl)c2)nc1` as the compound, how does the Potency read?
Answer: inactive

Question: `CCOc1ccc(-n2cc(-c3ccccc3)c3c(N4CCOCC4)ncnc32)cc1` was tested. Which Potency did it give?
Answer: inconclusive: 35.5 µM [inhibitor, partial curve]

Question: With `O=C(Nc1ccc(-c2nc3cc(Cl)ccc3c(=O)o2)cc1)c1ccco1` as the compound, how does the Potency read?
Answer: inconclusive: 7.08 µM [inhibitor, partial curve]

Question: For `COc1ccc(C2NCCn3cccc32)cc1` (centres undefined), which Potency is on record?
Answer: inconclusive: 28.2 µM [inhibitor, partial curve]

Question: `COc1ccc(CCC(=O)Nc2ccc(-c3noc(-c4ccc(OC)c(OC)c4)n3)cc2)cc1` was tested. Which Potency did it give?
Answer: inconclusive: 6.31 µM [inhibitor, single point]

Question: Which Potency does the source give for `O=C(Nc1ccc(Cl)c(Cl)c1)N1CCSC1c1ccco1` (centres undefined) here?
Answer: inactive

Question: `CC(=O)c1cccc(NC(=S)NC(=O)CC(C)(C)C)c1` was tested. Which Potency did it give?
Answer: inactive

Question: Which Potency does the source give for `S=C1NC2=C(CCC/C2=C\c2ccccc2)C(c2ccccc2)N1` (centres undefined) here?
Answer: inactive

Question: `COC(=O)c1sc2nc(CN3CCOCC3)nc(N3CCOCC3)c2c1C` was tested. Which Potency did it give?
Answer: inconclusive: 39.8 µM [inhibitor, single point]

Question: How did the Potency turn out when `O=C(COc1cccc2cccnc12)N/N=C1\SCC(=O)N1CCc1ccccc1` was run?
Answer: inconclusive: 31.6 µM [inhibitor, single point]

Question: How did the Potency turn out when `N#Cc1cc2ccccc2nc1SCc1ccccn1` was run?
Answer: inactive

Question: `COc1ccc(CCc2nc(-c3ccc(-n4cccc4)cc3)no2)cc1` was tested. Which Potency did it give?
Answer: inconclusive: 35.5 µM [inhibitor, single point]

Question: Which Potency does the source give for `O=C(CCCN1C(=O)CCC1=O)Nc1ccccc1F` here?
Answer: inactive

Question: With `C=CCNC(=S)Nc1ccc2nsnc2c1` as the compound, how does the Potency read?
Answer: inconclusive: 39.8 µM [inhibitor, single point]

Question: How did the Potency turn out when `O=C(c1cn2ccccc2n1)N1CCc2c([nH]c3ccccc23)C1c1ccccn1` (centres undefined) was run?
Answer: inconclusive: 39.8 µM [inhibitor, single point]

Question: `O=C(NC1CCCCC1)C(c1cccnc1)N(C(=O)c1csnn1)C1CCCC1` (centres undefined) was tested. Which Potency did it give?
Answer: inactive

Question: How did the Potency turn out when `O=C(CN1CCC2(CC1)OCCO2)c1ccc2cc[nH]c2c1` was run?
Answer: inconclusive: 28.2 µM [inhibitor, partial curve]

Question: How did the Potency turn out when `CCN1CCN(CC(=O)Nc2c(C(=O)OC)[nH]c3cccc(Cl)c23)CC1` was run?
Answer: inconclusive: 28.2 µM [inhibitor, single point]

Question: Which Potency does the source give for `O=C1c2ccccc2NC(c2cnc3ccccc3n2)N1O` (centres undefined) here?
Answer: inconclusive: 28.2 µM [inhibitor, single point]

Question: How did the Potency turn out when `COc1ccc(-c2cc(C(F)(F)F)nc(SCCC(=O)N3CCCC3)n2)cc1` was run?
Answer: inconclusive: 28.2 µM [inhibitor, partial curve]

Question: With `CC(=C\C(=O)O)/C(=C/c1ccco1)C(=O)O` as the compound, how does the Potency read?
Answer: inconclusive: 31.6 µM [inhibitor, single point]

Question: Which Potency does the source give for `Cc1cc(-c2nnc(CCC(=O)N3CCN(Cc4cccc(F)c4)CC3)o2)c(C)o1` here?
Answer: inactive

Question: For `CCOC(=O)c1cc2c(nc1N)CC(C)(C)OC2`, which Potency is on record?
Answer: inconclusive: 31.6 µM [inhibitor, partial curve]

Question: With `O=C(CC1CCCCC1)NCc1cn2ccsc2n1` as the compound, how does the Potency read?
Answer: inactive

Question: `COc1ccc(N2CC(O)=C(c3nc4ccccc4s3)C2=N)c(OC)c1` was tested. Which Potency did it give?
Answer: inconclusive: 39.8 µM [inhibitor, single point]

Question: For `CCC(=O)Nc1ccc(SC#N)cc1C`, which Potency is on record?
Answer: inactive

Question: Which Potency does the source give for `COc1ccc(NC(=O)c2cc(-c3cccs3)on2)cc1OC` here?
Answer: inconclusive: 35.5 µM [inhibitor, single point]

Question: With `CCOc1ccc(C(=O)Nc2ccc(NC(=O)c3cccs3)cc2)cc1[N+](=O)[O-]` as the compound, how does the Potency read?
Answer: inactive

Question: Which Potency does the source give for `O=C(N/N=C1\CC2CC=CC12)c1ccccc1Cl` (centres undefined) here?
Answer: inactive

Question: For `Cc1ccccc1NCc1ccccc1O`, which Potency is on record?
Answer: inactive

Question: Which Potency does the source give for `COc1cc(/C=C/C(=O)OCC(=O)N2CCc3ccccc3C2)ccc1O` here?
Answer: inconclusive: 28.2 µM [inhibitor, single point]

Question: Which Potency does the source give for `O=C(/C=C/c1ccccc1)NC(=S)NNC(=O)c1cccnc1` here?
Answer: inconclusive: 39.8 µM [inhibitor, single point]

Question: How did the Potency turn out when `COCCNc1nc2nonc2nc1NC(C)c1ccccc1Cl` (centres undefined) was run?
Answer: inconclusive: 39.8 µM [inhibitor, single point]

Question: With `COc1ccc(C(NC(=O)C(C)C)c2c(O)ccc3ccccc23)cc1OC` (centres undefined) as the compound, how does the Potency read?
Answer: inconclusive: 28.2 µM [inhibitor, single point]

Question: How did the Potency turn out when `COc1ccccc1N1CCN(C(=O)c2cc(-c3ccc4c(c3)OCO4)on2)CC1` was run?
Answer: inactive

Question: How did the Potency turn out when `COC(=O)c1[nH]c(C)c(/C(O)=C2\C(=O)C(=O)N(CCN(C)C)C2c2cc(OC)ccc2OC)c1C` (centres undefined) was run?
Answer: inconclusive: 35.5 µM [inhibitor, single point]

Question: Which Potency does the source give for `Cc1ccc(NCc2nc3ccccc3n2C)cc1` here?
Answer: inactive

Question: How did the Potency turn out when `COCCn1nnnc1C(c1cc2cc(C)ccc2[nH]c1=O)N1CCN(C2CCCCC2)CC1` (centres undefined) was run?
Answer: inconclusive: 31.6 µM [inhibitor, partial curve]

Question: Which Potency does the source give for `Cc1nc(N2CCN(C)CC2)c2cc(-c3ccccc3)sc2n1` here?
Answer: inconclusive: 28.2 µM [inhibitor, partial curve]

Question: `Cc1cccc(C)c1OCC(=O)Nc1ccc(S(=O)(=O)Nc2ccccn2)cc1` was tested. Which Potency did it give?
Answer: inconclusive: 20 µM [inhibitor, partial curve]

Question: Which Potency does the source give for `CCN1C(=O)C(O)(CC(=O)c2ccc(-n3cccc3)cc2)c2ccccc21` (centres undefined) here?
Answer: inactive

Question: For `CN(C)CCCNc1cc(C(C)(C)C)nc2c(-c3ccc(Cl)cc3)cnn12`, which Potency is on record?
Answer: inconclusive: 14.1 µM [inhibitor, partial curve]

Question: Which Potency does the source give for `CN(C)C(=O)c1ccc(COc2ccccc2Br)o1` here?
Answer: inactive

Question: `Cc1cc(-c2csc(NC(=O)c3ccc(C#N)cc3)n2)c(C)n1Cc1ccccc1` was tested. Which Potency did it give?
Answer: inconclusive: 15.8 µM [inhibitor, partial curve]

Question: How did the Potency turn out when `CCCCOC(=O)c1ccc(Nc2ncnc3nc[nH]c23)cc1` was run?
Answer: inconclusive: 25.1 µM [inhibitor, partial curve]

Question: With `Cc1ccc2nc(SCC(=O)O)nc(C)c2c1` as the compound, how does the Potency read?
Answer: inconclusive: 28.2 µM [inhibitor, partial curve]

Question: Which Potency does the source give for `Cc1ccc2oc3nc(C)c(C(=O)O)cc3c(=O)c2c1` here?
Answer: inconclusive: 11.2 µM [inhibitor, partial curve]

Question: For `COc1cccc(/C=C2\SC(=S)N(C(Cc3ccccc3)C(=O)O)C2=O)c1` (centres undefined), which Potency is on record?
Answer: inactive

Question: For `Nc1nc(CSc2nc3ccccc3s2)nc(N2CCOCC2)n1`, which Potency is on record?
Answer: inactive

Question: With `O=C(CSc1nnc(-c2ccccc2Br)o1)N1CCc2ccccc2C1` as the compound, how does the Potency read?
Answer: inactive

Question: Which Potency does the source give for `CN(C(=O)COC(=O)c1ccc2ccccc2n1)C1CCS(=O)(=O)C1` (centres undefined) here?
Answer: inconclusive: 35.5 µM [inhibitor, single point]

Question: Which Potency does the source give for `CN(C)/C=C1\C=C(c2ccccc2)OC1=O` here?
Answer: inconclusive: 39.8 µM [inhibitor, single point]

Question: `CCC(NC(=O)c1ccccc1O)c1ccccc1` (centres undefined) was tested. Which Potency did it give?
Answer: inconclusive: 25.1 µM [inhibitor, partial curve]

Reference: PubChem BioAssay AID2147 (National Center for Advancing Translational Sciences (NCATS), 2009)
